Over roughly 110,000 compounds, “z-score” has its median near -0.1; the highest 2% begin near 2. This is one part of the list. Active and inactive are the calls of the source.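 Rule for the calls: active = z-score in the third read window above 3 or below -3; inactive = the rest.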

This experiment has as its target Metabotropic glutamate receptor 8 (Rattus norvegicus) (UniProt P70579). In words: rat mGluR8 modulators via GIRK flux, primary screen, cell-based, thallium flux, HTS (AID 488969). To be noted: HEK293 rat mGluR8, GIRK (G protein-gated inwardly rectifying potassium channel) thallium flux, FluoZin2; at 10 µM; stronger effect = higher value; submaximal glutamate (EC20) added with thallium.
Sequence of UniProt P70579 (P70579 whole entry, looked up): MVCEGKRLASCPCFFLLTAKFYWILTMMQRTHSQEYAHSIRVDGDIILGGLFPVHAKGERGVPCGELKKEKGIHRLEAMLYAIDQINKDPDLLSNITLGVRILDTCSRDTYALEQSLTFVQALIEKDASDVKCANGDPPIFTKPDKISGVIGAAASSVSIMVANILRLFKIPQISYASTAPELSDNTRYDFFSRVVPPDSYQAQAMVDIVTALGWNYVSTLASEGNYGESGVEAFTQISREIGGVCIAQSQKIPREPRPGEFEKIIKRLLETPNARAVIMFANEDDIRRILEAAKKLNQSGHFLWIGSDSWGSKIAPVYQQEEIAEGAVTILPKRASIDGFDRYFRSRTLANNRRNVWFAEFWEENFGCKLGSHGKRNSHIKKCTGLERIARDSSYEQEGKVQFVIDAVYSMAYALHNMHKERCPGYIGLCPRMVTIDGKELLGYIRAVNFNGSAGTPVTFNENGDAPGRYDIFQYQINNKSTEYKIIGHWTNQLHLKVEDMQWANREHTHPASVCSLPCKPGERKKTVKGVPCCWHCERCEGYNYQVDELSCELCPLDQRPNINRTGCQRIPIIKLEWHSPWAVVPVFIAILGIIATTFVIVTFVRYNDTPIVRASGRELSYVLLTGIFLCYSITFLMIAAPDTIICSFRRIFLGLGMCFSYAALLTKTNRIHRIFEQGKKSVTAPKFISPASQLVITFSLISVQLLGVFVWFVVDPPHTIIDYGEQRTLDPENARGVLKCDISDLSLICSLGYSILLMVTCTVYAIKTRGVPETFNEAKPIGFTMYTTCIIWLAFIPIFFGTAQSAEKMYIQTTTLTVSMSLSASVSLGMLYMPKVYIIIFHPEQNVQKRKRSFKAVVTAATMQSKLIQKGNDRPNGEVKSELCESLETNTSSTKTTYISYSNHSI
Compound `S=c1[nH]nc(-c2ccncc2)n1Cc1ccccc1` showed a z-score of 1.42.

For the compound `CCOc1ccc(N=C(NC#N)SCC)cc1`, the z-score is -0.0898.

Consider `CCn1c(Cc2cccs2)nnc1SCC(=O)c1ccc(C)cc1`, for which the z-score is -0.584.

With `Cc1cccc(CSC2=NCCN2C(=O)c2ccc(Br)o2)c1`, the z-score was -1.03.

With `O=C(CSc1nnc(CNc2ccc(F)cc2)o1)N1c2ccccc2Sc2ccccc21`, the z-score turned out to be 0.359.

Turning to `O=C(O)C1CC(=O)N(c2ccc(OCc3ccccc3)cc2)C1` (stereo not given), the z-score is -0.183.

`Cc1cccc(C)c1OCCCCCNCCO` displayed a z-score of 0.445.

`N/C(=N\OC(=O)C(c1ccccc1)c1ccccc1)c1cccnc1`: the z-score was -0.28.

As for `CCOC(=O)C1(C)/C(=N/Nc2cccc(Cl)c2)C(=O)C(=O)N1c1ccccc1` (stereo not given), the z-score is -0.387.

On to `O=C(CSc1nnc(-c2cnccn2)n1Cc1ccco1)Nc1ccc(Br)cc1`, for which the z-score is -0.611.

On to `C=CCn1c(SCC(=O)c2[nH]c(C)c(C(=O)OCC)c2C)nc2scc(-c3ccc(OC)c(OC)c3)c2c1=O`, for which the z-score is -0.123.

Turning to `Cc1cccc(C(C)C)c1NC(=O)COC(=O)Cc1ccsc1`, the z-score was found to be 0.0528.

Turning to `Cc1ccc(C(=O)c2oc3ccccc3c2N)cc1`, the z-score is 0.974.

In turn, `COc1ccc(C(=O)Nc2ccc(C(=O)OCC(=O)c3ccccc3)cc2)cc1` came in with a z-score of 0.273.

Regarding `Cc1ccc(S(=O)(=O)ON=C2CCN(S(=O)(=O)c3ccccc3)CC2)cc1`, the z-score is -0.282.

As for `Cc1cc(NC(=O)CCC(=O)N(CCC(C)C)CC(=O)NCC2CCCO2)no1` (stereo not given), the z-score is -0.157.

Take `Cc1cc(NC(=O)CSc2nc(C3CC3)nc3sc(C)c(C)c23)no1`: the z-score is active: 12.4.

As for `Cc1cccc(Cn2c(C(=O)OC(C)C)cc3c2ccn3C)c1`, the z-score is -0.191.

Turning to `O=C(CSc1nnc2c(n1)[nH]c1ccccc12)Nc1ccc2c(c1)OCO2`, the z-score was -0.211.

For the compound `COc1ccc(N2CCN(c3nc(NC(C)(C)C)nc(N4CCCCC4)n3)CC2)cc1`, the z-score is -0.123.

On to `CCCOc1ccc(Cn2c(C)nc([N+](=O)[O-])c2SCC(O)COC)cc1[N+](=O)[O-]` (stereo not given), for which the z-score was -0.12.

Turning to `O=c1c(-c2nc3ccccc3s2)cccn1Cc1ccc(Cl)cc1`, the z-score is -0.0537.

In turn, `CC(C)N1C(=O)CCC1C(=O)NC1CCCC1` (stereo not given) returned a z-score of 0.643.

For the compound `COc1ccc(CC(=O)N2CC(C)CC(C)C2)cc1` (stereo not given), the z-score was -0.803.

On to `CCn1c(C)c(C(C)=O)c(N2CCN(C(=O)c3ccco3)CC2)nc1=S`, for which the z-score is 0.278.

Consider `O=C(CSc1nc(-c2ccc(F)cc2)cs1)Nc1ccccn1`, for which the z-score was -0.248.

Consider `Cc1cccc(NC(=O)c2cnc3scc(C)n3c2=O)c1`, for which the z-score is -0.165.

In turn, `CCOc1ccccc1NC=C1C(=O)OC2(CCCCC2)OC1=O` displayed a z-score of 0.615.

For `CCCCCOC(=O)c1[nH]c2c(c1C)C(=O)C(C(=O)OC)C(C)C2` (stereo not given), the z-score is -0.309.

Take `Cc1ccc(CNC(=O)c2sc3nc4c(c(C(F)(F)F)c3c2N)CCC4)cc1`: the z-score was -1.59.

Take `CCN(CC)S(=O)(=O)c1ccc(C)c(NC(=O)COC(=O)c2ccc(C)c(S(=O)(=O)N3CCOCC3)c2)c1`: the z-score is -0.0709.

For `N#Cc1c(C(F)(F)F)cc(-c2cccc(Cl)c2)[nH]c1=O`, the z-score was -1.11.

Turning to `COc1ccc(Cn2c(=O)[nH]c3cc(C(=O)NCCCN4CCCC4)ccc3c2=O)cc1`, the z-score was -0.345.

Consider `O=C1COc2ccc(C(=O)c3ccccc3C(=O)NCc3ccco3)cc2N1`, for which the z-score was 0.0372.

On to `COc1ccc2c(c1OC)C(=O)OC2c1c(O)nc(SC)n(-c2ccccc2)c1=O` (stereo not given), for which the z-score was -0.0012.

For `N/C(Cc1ccc(Cl)cc1Cl)=N\OC(=O)Cc1ccc(Cl)cc1`, the z-score was -0.156.

The compound `COc1ccc2nc(Nc3nc(CSc4nc5ccccc5[nH]4)cc(=O)[nH]3)nc(C)c2c1` displayed a z-score of 0.0342.

In the case of `COc1ccccc1N1CCN(C(=O)CSc2ccccc2)CC1`, the z-score was -0.145.

Consider `COC(=O)CN(c1ccc(F)cc1)S(=O)(=O)c1ccccc1`, for which the z-score came to 0.0769.

Turning to `O=C(COC(=O)c1cc(-c2cccs2)nn1-c1ccccc1)Nc1cccc([N+](=O)[O-])c1`, the z-score was -0.285.

Compound `CCOC(=O)Nc1cc2c(cc1C(C)=O)OCO2` gave a z-score of 0.657.

Take `CC(=O)c1cc2c(cc1NC(=O)CN1CCN(C(=O)c3ccco3)CC1)OCO2`: the z-score was found to be 0.548.

`CCCC(=O)NC(=S)Nc1ccccc1OC` displayed a z-score of 0.0794.

Turning to `COc1nc(SC)nc(Cl)c1Cc1ccc(OC(C)C)cc1`, the z-score was 0.013.

Consider `COc1ccc(CN2CCNC(=O)C2CC(=O)O)cc1OC` (stereo not given), for which the z-score is active: 3.61.

On to `CCCCOC(=O)Nc1ccc2c(C)cc(=O)oc2c1`, for which the z-score is -0.24.

On to `Cc1ccc(C(C(=O)NC(C)(C)C)N(C(=O)c2csnn2)c2cccc(F)c2)o1` (stereo not given), for which the z-score was 0.169.

Regarding `COc1ccc(NC(=O)C2CCN(c3nc(C)cc(C)n3)CC2)cc1`, the z-score was -0.302.

On to `Cc1cc(N2CCC(C(=O)Nc3ccc(F)cc3)CC2)nc(-c2ccccc2)n1`, for which the z-score is -1.05.

Regarding `COc1ccc2c(c1)CCc1c(C(=O)N3CCOCC3)noc1-2`, the z-score amounted to 0.766.

Consider `CC1(C)N=C(N)N=C(N)N1c1ccc(F)cc1F`, for which the z-score was -0.421.

`CC(C)(C)c1[nH]nc2c1C(C1C=CCCC1)C(C#N)=C(N)O2` (stereo not given) gave a z-score of 0.102.

Regarding `CCOC(=O)C1CCCN(C(=O)c2cccs2)C1` (stereo not given), the z-score was -0.161.

With `COC(=O)Cn1c2ccc(C)cc2c2nc(C)sc21`, the z-score came out at 0.127.

As for `CCOC(=O)c1cn(-c2ccccc2)nc1-c1ccncc1`, the z-score turned out to be 0.74.

Take `CCCN1C2=NS(=O)(=O)CCN2c2ccccc21`: the z-score is 0.249.

In the case of `COc1ccc(OCCSc2nnc(CC(=O)Nc3cccc(Cl)c3Cl)n2C)cc1`, the z-score is -1.01.

On to `Cc1cccc(NC(=O)c2ccc(COc3ccc(Cl)cc3Cl)o2)n1`, for which the z-score is -0.165.

For `N#C/C(=C\c1ccc(-c2cccc(Cl)c2)o1)C(=O)Nc1cccc2cccnc12`, the z-score was -0.255.

In the case of `CCCCOc1ccc(/C=N/NC(=S)Nc2cc(C)ccc2C)cc1`, the z-score was found to be 1.19.

On to `Cc1cccc(S(=O)(=O)N2CN(Cc3ccco3)c3nc4ccccc4nc32)c1`, for which the z-score was -0.177.

Turning to `CC(=O)/C(=C/Nc1ccc(Oc2ccccc2)cc1)c1ccccc1`, the z-score was -2.35.

The compound `COc1ccc(C2CC(c3ccc(Cl)cc3Cl)n3nc(N)nc3N2)cc1` (stereo not given) gave a z-score of 1.76.

On to `Cc1cc(/C=C(\C#N)c2nc3ccccc3[nH]2)c(C)n1C`, for which the z-score is -0.371.

For `Cc1ccc(-c2noc(CN(C(=O)Cc3ccccc3)C(C)C)n2)cc1`, the z-score is 0.0197.

Take `c1ccc2sc(SCc3ccc(-c4nnco4)cc3)nc2c1`: the z-score is -0.189.

In the case of `COc1cc(OC)c(-c2nc3cnccc3n2C)cc1OC`, the z-score worked out at 0.0988.

As for `COc1cc(/C=C(/C#N)c2ccc(F)cc2)ccc1OCc1ccc(C(=O)O)o1`, the z-score is active: -4.8.

Regarding `Cc1cc(C)cc(N(C(=O)C2CCCC2)C2C=CS(=O)(=O)C2)c1` (stereo not given), the z-score was found to be 0.0646.

`O=C(Cn1ncc2c(=O)oc3ccccc3c21)NCCc1ccsc1`: the z-score was -0.157.

For the origin of these results see PubChem BioAssay AID488969 (Vanderbilt High Throughput Screening Facility, 2010).
